Reference: PubChem BioAssay AID686970 (National Center for Advancing Translational Sciences (NCATS), 2013)
Among all 360,000 compounds or so, about 6,000 (1.7%) were called active. Inconclusive means that the source gave no clear call. Such entries were picked first, then a sample of the others. Calls follow the shape of the dose curve; as a rule, active = well fitted cell-killing curve with a large enough effect; inconclusive = small, poorly fitted or top-dose-only effect, or effect the other way; inactive = flat fitted curve, though single readings scatter. No potency is given beside an inconclusive call; the fits are too rough.

Test: qHTS for induction of synthetic lethality in tumor cells producing 2HG: qHTS for the HT-1080-NT fibrosarcoma cell line;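 also: NT is the 2HG producing partner of a matched IDH1 knockdown line; nearly all actives have a fitted effect of over 55% in size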;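 as to activity, negative = less viability: 0% = DMSO-treated cells and -100% = media-only wells without cells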
Conditions: HT-1080-NT fibrosarcoma viability, CellTiter-Glo ATP luminescence, 48 h; activity, negative = less viability: at 46.1 µM (top of the series) unless noted
In short: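 Viability by CellTiter-Glo luminescence after 48 h compound exposure at 37C of HT-1080-NT cells (750/well, RPMI, 5% FBS). % activity scaled between DMSO wells and medium-only wells, then curve-fitted and categorized by curve class.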
Potency is read from the fitted curve at half-maximal effect; tags tell the direction and shape of the fitted curve.

Row | SMILES | Potency | activity, negative = less viability
1 | CCCCCc1cc(=O)oc2c(C(CCN3CCCC3)c3cc(OC)c(OC)c(OC)c3)c(OC)cc(OC)c12 (centres undefined) | inconclusive [cytotoxic, single point] | 
2 | Cc1cc(C)cc(NC(=S)N2CCC(c3nc4ccccc4s3)CC2)c1 | inconclusive [cytotoxic, single point] | 
3 | CN(C)CCCN(C(=O)c1ccc(C(=O)c2ccccc2)cc1)c1nc2cc3c(cc2s1)OCCO3 | inconclusive [cytotoxic, single point] | 
4 | O=C(O)C(=O)/C(=C\c1ccsc1)c1ccc2ccccc2n1 |  | inconclusive: -9.91% [cytotoxic]
5 | CN1CCN(c2ccc(Cl)cc2NC(=O)c2cccc(S(=O)(=O)N(C)C)c2)CC1 | inconclusive [cytotoxic, single point] | 
6 | CC(C)CC1Nc2ccc(C(=O)NCCCN3CCOCC3)cc2NC1=O (centres undefined) |  | inactive: 3.67%
7 | O=C(N/N=C/C1CC=CCC1)c1cc(-c2cccnc2)nc2ccccc12 (centres undefined) |  | inactive: -26.4%
8 | CC(C)CC(N)c1csc(Nc2ccc(C(=O)c3ccccc3)cc2)n1 (centres undefined) | inconclusive [cytotoxic, single point] | 
9 | COc1ccc(NC(=O)Cn2nnc(C(=O)NCc3ccc(C)cc3)c2N)cc1OC | inconclusive [cytotoxic, single point] | 
10 | CCOC(=O)c1c(NC(=O)COC(=O)Cn2c(C)nc3ccccc32)sc2c1CCCC2 |  | inactive: 13.1%
11 | CN(C(=O)COC(=O)CSc1ccc(C(N)=O)cc1[N+](=O)[O-])C1CCCCC1 |  | inactive: 1.47%
12 | O=C(/C=C/c1cccnc1)/C=C/c1cccnc1 | active: 4.11 µM | 
13 | CN(C)CCNC(=O)c1cccc(-c2cnc3c(NC=O)cc(-c4cc(F)c(F)c(F)c4)cn23)c1 | inconclusive [cytotoxic, partial curve, poor fit] | 
14 | COc1cccc(-c2nc(C(=O)NCC3CCCO3)cc3c2[nH]c2ccccc23)c1 (centres undefined) | inconclusive [cytotoxic, single point] | 
15 | Cc1ccc(-c2nnn(CCC(=O)Nc3ccc4c(c3)OCO4)n2)cc1 | inconclusive [cytotoxic, single point] | 
16 | CCOC(=O)c1c(NC(=O)CN2C(=O)NC(C)(c3ccc(OC(F)F)cc3)C2=O)sc(C)c1C (centres undefined) | inconclusive [cytotoxic, single point] | 
17 | Cc1cc(OCC(=O)Nc2ccc(F)c(F)c2)nc(C(C)C)n1 | inconclusive [cytotoxic, single point] | 
18 | CCOc1ccc(C(=O)N2CCN(Cc3ccccc3)CC2)cc1OCC |  | inactive: -6.43%
19 | CC12Cc3ccc4ccccc4c3C=C1C[N+](C)(C)C2 (centres undefined) |  | inactive: 0.751%
20 | Cc1ccc(COc2ccccc2-c2cc(C(=O)N/N=C/c3cccnc3)[nH]n2)cc1 | inconclusive [cytotoxic, partial curve] | 
21 | Nc1cccc2c1C(=O)N(C(=O)/C=C/c1cccc(Br)c1)C2=O | inconclusive [cytotoxic, full curve] | 
22 | O=C1CC(Sc2nnnn2C2CCCCC2)C(=O)N1c1ccccc1 (centres undefined) | inconclusive [cytotoxic, single point] | 

Row | SMILES | Potency | activity, negative = less viability
23 | CC(C)NC(=S)N/N=C/c1sc(N2CCCCC2)nc1-c1cccs1 | inconclusive [rising, full curve] | 
24 | CCc1nc2ccc(C(=O)NCCOc3ccc(OC)cc3)cn2c1N(C)Cc1ccc(N(C)C)cc1 |  | inconclusive: 27.4%
25 | O=C1CCCC2=C1C(c1cccs1)Nc1ccc3ncccc3c12 (centres undefined) | inconclusive [cytotoxic, single point] | 
26 | COc1cccc(OC)c1OCCNCC1COc2ccccc2O1 (centres undefined) |  | inactive: -8.83%
27 | CC(=O)Nc1cccc(NC(=O)CSc2nc(=O)n3cccc(C)c3n2)c1 |  | inactive: 2.76%
28 | Oc1ccc(-c2csc(-c3c[nH]c4ccccc34)n2)c(O)c1 | inconclusive [cytotoxic, single point] | 
29 | S=C1NC(c2ccccc2)=NCN1c1ccc(Br)cc1 | inconclusive [cytotoxic, single point] | 
30 | N#C/C(=C\c1ccc(O)c([N+](=O)[O-])c1)C(=O)NCc1ccccc1 | inconclusive [cytotoxic, partial curve] | 
31 | CCCSc1nnc(CNC(=O)C23CC4CC(CC(C4)C2)C3)n1Cc1ccccc1 |  | inactive: -1.94%
32 | Oc1ccc2ccccc2c1N=Nc1ccccn1 | inconclusive [cytotoxic, full curve] | 
33 | COc1ccc(OC(C)C(=O)Nc2ccc([N+](=O)[O-])cc2)cc1 (centres undefined) |  | inactive: -18%
34 | C=CC(=O)Nc1ccc(Br)cc1 | inconclusive [cytotoxic, partial curve] | 
35 | O=C1NCN(c2ccccc2)C12CCN(CCCC(c1ccc(F)cc1)c1ccc(F)cc1)CC2 | active: 8.2 µM | 
36 | Cc1cnc(C)c(Nc2nc(C(N)Cc3ccc(Cl)cc3)cs2)n1 (centres undefined) | active: 18.4 µM | 
37 | NC(=O)c1nn(-c2ccccc2)nc1NC(=O)CN1CCCCC1 | inconclusive [rising, partial curve, poor fit] | 
38 | O=C(ONc1ccc(N=NC(=O)c2ccccc2O)cc1)c1ccccc1 | active: 2.31 µM | 
39 | O=C(O)c1ccccc1C(=O)N1CCN(Cc2ccc3c(c2)OCO3)CC1 |  | inactive: 18.3%
40 | COc1cccc(/C=N/NC(=O)CNC(=O)C2COc3ccccc3O2)c1O (centres undefined) | inconclusive [cytotoxic, full curve, poor fit] | 
41 | CCOc1ccc(-c2nc(N)ncc2-c2ccccc2)c(O)c1 | inconclusive [cytotoxic, single point] | 
42 | O=C(NCc1cccnc1)c1ccc(NC(=O)c2cccc([N+](=O)[O-])c2)cc1 | inconclusive [cytotoxic, partial curve] | 
43 | CC(C)(C)NC(=O)C(c1ccc(-c2ccccc2)cc1)N(C[C@H]1CC[C@@H]([C@@H]2CC[C@H](CO)O2)O1)C(=O)c1ccc(C(C)(C)C)cc1 (some centres undefined) | inconclusive [cytotoxic, single point] | 
44 | O=C1OCC/C1=C\c1ccccc1O |  | inconclusive: 30.5%
